Data: the supplement of paper PMC3334620
In all, about 33,000 sequences were measured (“E-score (-0.5 to 0.5)”: median about -0.021, highest 2% from about 0.32 on). The list shows a part of the results.

Target: T1, Zap1 (UniProt P47043)
T1 sequence: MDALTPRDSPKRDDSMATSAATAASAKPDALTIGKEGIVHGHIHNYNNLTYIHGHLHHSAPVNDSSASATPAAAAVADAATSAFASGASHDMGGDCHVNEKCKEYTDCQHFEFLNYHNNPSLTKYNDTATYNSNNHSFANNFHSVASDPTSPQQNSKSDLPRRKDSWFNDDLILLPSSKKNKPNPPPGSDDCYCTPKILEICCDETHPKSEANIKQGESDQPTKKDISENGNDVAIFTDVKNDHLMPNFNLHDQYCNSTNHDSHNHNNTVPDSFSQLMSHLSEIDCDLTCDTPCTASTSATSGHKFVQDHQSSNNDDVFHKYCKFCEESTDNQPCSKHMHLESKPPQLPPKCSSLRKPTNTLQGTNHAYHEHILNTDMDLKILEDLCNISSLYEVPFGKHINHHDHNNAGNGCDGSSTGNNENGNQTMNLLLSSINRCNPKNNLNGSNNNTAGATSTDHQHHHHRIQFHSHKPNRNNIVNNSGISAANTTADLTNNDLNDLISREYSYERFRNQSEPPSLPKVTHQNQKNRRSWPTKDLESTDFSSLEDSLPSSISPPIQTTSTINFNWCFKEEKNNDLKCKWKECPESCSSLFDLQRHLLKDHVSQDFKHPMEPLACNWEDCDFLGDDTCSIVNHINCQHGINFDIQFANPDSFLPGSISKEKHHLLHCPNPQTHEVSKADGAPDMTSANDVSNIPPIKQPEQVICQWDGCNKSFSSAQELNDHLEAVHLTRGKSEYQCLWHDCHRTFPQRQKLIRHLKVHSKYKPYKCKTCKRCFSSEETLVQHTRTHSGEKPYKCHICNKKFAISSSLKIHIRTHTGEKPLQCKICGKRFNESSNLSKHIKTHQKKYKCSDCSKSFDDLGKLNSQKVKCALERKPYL
Assay: PBM E-score (8-mer binding enrichment) (E-score (-0.5 to 0.5)); higher = stronger / more preferred TF binding; most listed sequences are background and not binding sites
Conditions: protein concentration: 200 nM; construct: GST-full length
Procedure: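 Universal 'all 10-mer' protein binding microarrays (Agilent AMADID 015681) probed with GST-tagged S. cerevisiae TFs (full-length or DBD) made by in vitro transcription/translation (PURExpress), about 100-200 nM. Bound TF was detected with fluorescent anti-GST. Each ungapped 8-mer (which stands for itself and its reverse complement) is scored by the PBM enrichment score (E-score), a modified Wilcoxon-Mann-Whitney statistic from -0.5 to +0.5, computed with the Universal PBM Analysis Suite. Scale: above 0.35 generally sequence-specific binding.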

Sequence	PBM E-score
CGATGCTA	-0.194
CATGACAC	0.0287
CAAGTCTG	-0.235
CCAACATA	0.111
CGTGCGCA	0.0755
CAGGGTGA	0.313
CCCTAAGC	-0.159
TGGCCGAA	0.0306
GTTCGGTA	0.0896
CTCTCATA	-0.0179
CGTCTACA	-0.302
AACGGATG	-0.0695
GTTACATA	0.195
ACTTTGTG	-0.0505
CGCCACGA	-0.0226
ACCAAATA	0.232
ACGCGGGA	-0.0381
GCCTGCAC	-0.228
TAATTGTA	0.144
AGAACCTC	0.181
CTGGGGAA	-0.0513
ATCATCAC	0.131
CCGTAGCG	-0.2
ACTTCGCA	0.0135

Sequence	PBM E-score
ACACCGTA	0.0263
CCTCATCC	-0.117
CAGGTAGC	-0.0594
CTACGGGC	-0.284
TCAAGTGA	0.025
TCTCAGAA	-0.0113
TGGGAAAA	-0.143
CAATGCGC	-0.152
AAGCATTA	-0.0508
AATATTGA	-0.00618
CCCTACCC	0.153
GACGTGCA	-0.165
AGATGACT	-0.183
AGGCCTCG	-0.0636
AATATTCG	0.0792
GCAAACGC	-0.15
AAGGACGA	-0.212
GACGTATC	-0.225
CAATCTCG	-0.161
AAAAGAGG	-0.0555
CGACGCCG	-0.154
ATGCTCCA	-0.126
GAATTCGC	-0.213
GCTTTGAC	0.0804

Sequence	PBM E-score
ACCGACAC	-0.196
ACCGGGCC	0.0478
AGGTATAC	0.19
TAGTAGGA	-0.0963
ACTAACAA	0.166
TCCAACAA	-0.0932
GACGGGAA	-0.158
GAAGTCCC	-0.218
AGAGTTGA	-0.0238
CATTTCTA	0.0533
AGATTTCG	0.0795
ACCGGCCG	0.229
TGTACCAA	0.0671
GAACCCAC	0.226
GTGACCAA	0.305
ATGATACG	0.0877
CTCTGGCC	-0.0988
ATTGGCTA	-0.0165
CTTTATCC	0.0955
GTAACGTA	0.0108
CAAGCAAC	0.021
ACCGAAGA	0.162
CTCGGCAA	-0.2
AATTCTAG	0.132

Sequence	PBM E-score
AATCAATT	0.0523
ATACGTCC	-0.118
AGCTAGCG	-0.239
AGGATACC	0.28
AGGCACTA	-0.077
AGTTTAGA	0.119
AAACACGT	-0.112
ACAAGTCG	-0.317
ACAGATCC	-0.0482
AGGTGGAA	0.049
CCTATAAG	-0.0114
AGTCCTGC	-0.122
CTGAGCAC	-0.0677
CCCCCTGC	-0.372
AACTATCT	-0.149
CTCGTCGA	-0.0885
GCCTCCCC	-0.0546
AACTGAAT	-0.137
GAGGTACA	0.155
AAGGGGTC	0.264
GCAGACGC	-0.00899
GTAATCAA	0.146
